# The full ranking holds about 2,300 sequences; the median of “median log2 fold change of GCK-ALFA target abundance (FLAG IP / Myc IP barcode read proportion)” is about 0.095, and the lowest 2% start at about -0.47. Some of the results follow.
# B1: LC3A_147_399 (protein)
# chain: ALVEVDIDLLTNGDREVVEELVERLRETAEALGARVEVEVELEEEPGELYSRITVRAEVSDDPEEIARLEDALLDTIDEFLEENRDKVLGALISVDVIRR
# B2: LC3A_free_8_2547 (protein)
# chain: DVEAFAAALSALLDKLEEEIRKEAKKLGVDRLDILDLELLVGETIAEALEAAEEGPEAALEAVREGLEEVIKEAKKISEELAKIVEKKSEEVLEEAEKLL
# B3: LC3A_free_8_2451 (protein)
# chain: KAQEATDVALEKLEELEEELVKKAKELGLDELDILELELEIGAAIIDIIEASDKSLEEIIKVAEESMKEIIELAKELGEELAKLAEEKSEELMEELEELK
# B4: LC3A_3_1513 (protein)
# chain: MEELIKETLELLKEAGKSEEVIKAAREALEALKEKGYEEALKVFAEELKKLIDLPDELLLDLFKEVKELVENSDLSEEELIKKIKELARIYKSEGEIEEL
# B5: LC3A_28_1097 (protein)
# chain: SALEKQLAAALAEVKAAAAAGEPVTVTITVTDEATEEDIELLKETLKEMAEIGKTLPSLTVIINLSGKKAQEKATIISEFADELEKKYPNLTVIIALDED
# B6: LC3A_78_2079 (protein)
# chain: MKVAIIAHEESAKELAEEEKKKLTDADEVVVGPISELEELVEKYKDADEIIISIHADTLDKVDAAVEKVKEILSDYNISEIIEYDEETGHYTGHIWAEKK
# B7: LC3A_28_718 (protein)
# chain: SALEKSIKEALEKAKEAAEKGEEVVIEIKVPGDATEEDIEKVIKTLEEIAEILKDLPSQSIIIDVDGGVKQEYIDKLADKAEEIEKKYPNVTVIIALDEE
# B8: LC3A_28_1296 (protein)
# chain: SALKEQLDKVLEEAKKAAERGEPVVLTIKVPGDANEEDIDYLIEKLKEIAEVLKDVPGSAIIIDVDAKLKQEHLDKIMEAAEEIEEKYPNVTVIIALEEP
# B9: LC3A_17_570 (protein)
# chain: SAEIEALVREAEAALRRAEAFAATIDPAAAAEIAALLARVREAAATLSDLEIARVIAEAMDRASRILDSLEDKDPDAASLLSMEMEGVAVEAESLALKLE
# B10: LC3A_28_953 (protein)
# chain: TSLDDILAAALAEAKAAAAAGEPAVITITVPGDATEEDIEKVIATLKEIAEILKDVKGAAIVVDVEAGVKQEHIDKLADAAEEIEKKYPNITVILALDED
# B11: LC3A_free_8_2445 (protein)
# chain: KNQELVDKITEKLDELEEEVEKKAKELGLSRLEILELSLLIGSVISEIISATDDSIEKIKEIATKELTELEEEAKKLSEELAKIVKETKEEILKLIEEAE
# B12: LC3A_3_1750 (protein)
# chain: MEEKLKEARELGEELGFSEETIEAFLKVVELLLERGFEEAVEVLLELLEEQKDLPDEILLAMLEDIERVIETEDLNEEEVIERIREEFRTARNEAEIEEL
# B13: LC3A_28_656 (protein)
# chain: MSIEEIIEEALKKAEEAKEKGEPAVITITVPGSANEEDIELVIEAMEKIAEMLKDIEGSAIIIDLTGNLKEEHRNLLIDKGEELEKKYPNVTVIIAEDEE
# B14: LC3A_45_2006 (protein)
# chain: MYLATVDVLVPREKAEEAVRVARETARRLEAEHAGKVRVDLERLEESYEASKDEEEVYLEVEIYAETEELALDLADELVDALEEALGDSVAAIISVKEVP
# B15: LC3A_147_406 (protein)
# chain: YRLEIDIDILHKGKEELVEELAEEIKELLEEMGLEVEIEIEHEKIDENTDYSHIKITVEAETKEEAEEAANKILDLIDEFEEKNKDEILGSLISYEIEEL
# B16: LC3A_3_1697 (protein)
# chain: MEEILKEAREIAEKLGLSEETIEAILEALKALLEKGYEEAAKTLLELLKEAKDLSDEIVKDFAEDVKRVAEEEDLSEEEVIKRIKELYEIAKNEQEIEEL
# B17: LC3A_147_438 (protein)
# chain: WKAEVDVDILTKNAEEEVLAAFKALADELKAQGYTVTLDIEVEKLENGETYIHVTITVDAPTEADAKAAADYVVDRIEELEEKLKDKILGSIISVDISKK
# B18: LC3A_141_354 (protein)
# chain: MEEKKTYTIEAETPEEAIEKVEKVKEEIKKLMKEKGYKEVKITVTIKTKNKETGEEETETINETVTPENIDLVFDSIIISVASAALKGDVTTTIEATLIK
# B19: LC3A_free_46_2359 (protein)
# chain: MEIDIDLLAKGKSEEEVKEIAERLREGIEEIAEEEGVEVEIEVEIEKDEEGDYFIDIEIEVDAPTPEKARRFSSRVSELVDELSLEEGLAAIISIEEDEP
# Molecular target: MAP1LC3A, Q9H492
# Assay: median log2 fold change of GCK-ALFA target abundance (FLAG IP / Myc IP barcode read proportion) (log2 ratio); each designed protein is fused to an ALFA-tag nanobody in HEK293 cells to bring the named protein to FLAG-tagged glucokinase (GCK); Myc marks an untargeted standard; higher = target protein stabilised (more abundant)
# Settings: target protein: 3xFLAG-MCP-GCK-ALFA reporter; HEK293 landing pad (RPLP)
# Experimental: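 LABEL-seq trans screen in HEK293 landing-pad cells. Each de novo designed 100-aa effector handle, binding the indicated effector (E3 ligase, DUB or autophagy protein), is fused to a constant NbALFA target handle and induced with 2 ug/mL doxycycline. A FLAG-MCP-GCK-ALFA target and a Myc-MCP standard reporter were transfected, and after 48 h circRNA barcodes were recovered by anti-FLAG and anti-Myc IP and sequenced. The value is the median across barcodes (at least 3 per design) of log2(FLAG/Myc read-proportion ratio), with the two transfection replicates pooled. Negative values mean degradation and positive values mean stabilisation of the target.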
row,Binder,median log2 fold change
1,B1,-0.157
2,B2,-0.158
3,B3,-0.357
4,B4,0.395
5,B5,0.29
6,B6,0.126
7,B7,0.323
8,B8,-0.0615
9,B9,0.292
10,B10,-0.0309
11,B11,0.116
12,B12,0.136
13,B13,0.385
14,B14,-0.115
15,B15,-0.22
16,B16,0.273
17,B17,-0.15
18,B18,0.207
19,B19,-0.226
